According to paper PMC6030115:
Results are given in words; binding and its absence hold for the method and conditions named. Binding seen in cells or lysates may run through a third protein. Some entries that bind do so weakly or less than the wild type.

Sequences of proteins named here, by UniProt entry; tags and fusion partners are left off. A change or cut given only in a name is not applied to a line headed by its entry. A line that says so, or that is headed by a name, gives the form on record, which may keep a tag or linker. Residues count along the entry.
UniProt P53667: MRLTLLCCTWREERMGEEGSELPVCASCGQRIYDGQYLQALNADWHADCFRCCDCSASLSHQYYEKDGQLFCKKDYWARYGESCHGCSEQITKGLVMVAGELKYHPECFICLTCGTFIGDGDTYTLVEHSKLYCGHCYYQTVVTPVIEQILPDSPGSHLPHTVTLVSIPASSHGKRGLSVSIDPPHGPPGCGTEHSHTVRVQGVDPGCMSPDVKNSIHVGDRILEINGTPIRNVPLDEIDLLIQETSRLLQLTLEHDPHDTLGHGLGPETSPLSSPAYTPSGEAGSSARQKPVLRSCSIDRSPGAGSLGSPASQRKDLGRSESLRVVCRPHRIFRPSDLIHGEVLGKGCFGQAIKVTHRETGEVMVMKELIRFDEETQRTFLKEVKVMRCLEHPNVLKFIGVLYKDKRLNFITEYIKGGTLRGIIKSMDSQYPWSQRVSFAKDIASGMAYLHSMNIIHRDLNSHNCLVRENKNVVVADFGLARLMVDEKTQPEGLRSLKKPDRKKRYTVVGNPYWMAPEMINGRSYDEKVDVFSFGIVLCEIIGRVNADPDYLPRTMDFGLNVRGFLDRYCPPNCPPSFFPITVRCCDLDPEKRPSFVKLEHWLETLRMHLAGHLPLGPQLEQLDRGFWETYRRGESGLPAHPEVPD
GST-tagged LIMK1 kinase domain: residues 339-604 of P53667
UniProt P53671: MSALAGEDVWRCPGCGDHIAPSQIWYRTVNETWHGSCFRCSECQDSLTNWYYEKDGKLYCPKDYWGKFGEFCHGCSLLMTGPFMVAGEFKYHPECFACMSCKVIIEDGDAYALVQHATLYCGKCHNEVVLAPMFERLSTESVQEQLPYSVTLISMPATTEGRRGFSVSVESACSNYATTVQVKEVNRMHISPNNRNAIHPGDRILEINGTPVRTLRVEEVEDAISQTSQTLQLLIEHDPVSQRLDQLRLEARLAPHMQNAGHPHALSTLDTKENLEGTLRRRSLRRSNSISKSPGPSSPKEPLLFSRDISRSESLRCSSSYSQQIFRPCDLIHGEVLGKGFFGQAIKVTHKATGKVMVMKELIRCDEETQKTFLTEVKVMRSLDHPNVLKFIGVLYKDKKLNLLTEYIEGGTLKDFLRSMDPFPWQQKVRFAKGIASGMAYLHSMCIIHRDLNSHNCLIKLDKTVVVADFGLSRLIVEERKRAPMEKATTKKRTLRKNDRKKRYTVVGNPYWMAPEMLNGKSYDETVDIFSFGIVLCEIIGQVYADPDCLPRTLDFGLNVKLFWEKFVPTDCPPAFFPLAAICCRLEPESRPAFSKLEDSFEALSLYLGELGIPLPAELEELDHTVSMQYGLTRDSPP
UniProt O43237: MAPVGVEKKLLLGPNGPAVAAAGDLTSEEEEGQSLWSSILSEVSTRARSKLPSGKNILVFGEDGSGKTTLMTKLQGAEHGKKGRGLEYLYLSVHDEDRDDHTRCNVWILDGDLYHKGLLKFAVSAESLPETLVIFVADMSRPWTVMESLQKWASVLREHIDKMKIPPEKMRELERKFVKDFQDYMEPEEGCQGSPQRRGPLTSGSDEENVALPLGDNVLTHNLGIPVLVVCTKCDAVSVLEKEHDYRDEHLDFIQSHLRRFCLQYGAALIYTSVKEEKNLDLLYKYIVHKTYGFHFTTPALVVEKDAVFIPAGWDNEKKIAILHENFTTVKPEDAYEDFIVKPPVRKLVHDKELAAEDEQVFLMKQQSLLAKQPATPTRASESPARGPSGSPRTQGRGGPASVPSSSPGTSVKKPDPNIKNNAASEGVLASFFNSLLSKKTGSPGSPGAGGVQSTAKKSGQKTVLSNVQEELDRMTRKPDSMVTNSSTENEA
UniProt Q9Y6G9: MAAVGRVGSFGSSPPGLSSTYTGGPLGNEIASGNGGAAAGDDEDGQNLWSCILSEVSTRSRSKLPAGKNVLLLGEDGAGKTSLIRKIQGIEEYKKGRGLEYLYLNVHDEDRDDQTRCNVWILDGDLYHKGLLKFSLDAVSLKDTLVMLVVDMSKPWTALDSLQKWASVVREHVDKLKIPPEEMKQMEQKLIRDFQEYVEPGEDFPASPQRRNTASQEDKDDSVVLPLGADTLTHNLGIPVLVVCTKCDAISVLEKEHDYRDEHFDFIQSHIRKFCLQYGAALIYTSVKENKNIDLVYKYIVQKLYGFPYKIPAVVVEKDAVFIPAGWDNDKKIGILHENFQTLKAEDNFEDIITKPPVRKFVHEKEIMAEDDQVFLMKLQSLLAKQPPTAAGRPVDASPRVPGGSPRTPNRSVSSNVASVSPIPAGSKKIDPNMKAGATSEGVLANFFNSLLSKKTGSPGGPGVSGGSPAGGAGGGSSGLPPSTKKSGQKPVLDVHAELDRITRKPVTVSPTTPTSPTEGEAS

How the values were obtained:
[1] = biological target: GST-tagged LIMK1 kinase domain (UniProt P53667); assay: pull-down; HEK 293 cells co-transfected with GST-tagged LIMK1 constructs and FLAG-LIC1 or FLAG-LIC2 for 24 h; lysate on Glutathione Sepharose 4B beads, washed thrice with mammalian cell lysis buffer; western blot with FLAG and GST antibodies
[2] = biological target: LIM kinase1 (human (endogenous in HeLa)) (UniProt P53667); assay: co-IP; endogenous proteins; HeLa cells synchronized to M phase with nocodazole for 16 h (interaction with LIMK1 also told for asynchronized cells); lysate incubated with anti-LIMK1 or anti-LIMK2 on magnetic Protein A beads, non-immunized rabbit IgG as control; washed four times with mammalian cell lysis buffer; western blot
[3] = biological target: LIMK2 (human (endogenous in HeLa)) (UniProt P53671); assay: as above

Substance | binding [1] | binding [2] | binding [3]
FLAG-LIC2 (from UniProt O43237 1-492) | binds | – | –
Cytoplasmic dynein 1 light intermediate chain 1 (from UniProt Q9Y6G9 1-523) | – | binds | no binding
FLAG-LIC1 (from UniProt Q9Y6G9 1-523) | binds | – | –
Cytoplasmic dynein 1 light intermediate chain 2 (from UniProt O43237 1-492) | – | binds | no binding
